The supplement of paper PMC4967469
The IC50 comes from the fitted curve, where viability falls to half of the control; fits outside the tested doses are given as limits. AUC is the area under the same curve over the 256-fold range up to the top dose, as a fraction; it is 1 without any effect and falls as sensitivity rises. For part of these data: An inferred top dose is not printed in the source and was worked back from the curve model. For part of these data: An entry number marks a drug with two screens in the source, which often give different values.

Tests used:
Experiment in all cases: Viability of human cancer cell lines after 72 h of drug (GDSC screen)
[1] = compound: CC(=O)O[C@@]12CO[C@@H]1C[C@H](O)[C@@]1(C)C(=O)[C@H](O)C3=C(C)[C@@H](OC(=O)[C@H](O)[C@@H](NC(=O)OC(C)(C)C)c4ccccc4)C[C@@](O)([C@@H](OC(=O)c4ccccc4)[C@H]21)C3(C)C [Docetaxel]; settings: top dose 0.0125 µM
Procedure: (§1)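 Human cancer cell lines in 384-well plates, medium with 10% serum, drug for 72 h over a 256-fold dose range (nine 2-fold or five 4-fold steps up to the top dose). Adherent lines were fixed and stained with the nucleic acid dye Syto60, suspension lines read with resazurin; signal relative to control wells, capped at 0 and 100%. One two-parameter sigmoid per drug and line, fitted in a mixed model over all curves with the slope shared within a line.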

[2] = compound: CC1(C)CNc2cc(NC(=O)c3cccnc3NCc3ccncc3)ccc21 [AMG-706]; settings: top dose 2 µM; top dose inferred
Procedure: as §1

[3] = compound: CCOc1nc(NC(=O)Cc2cc(OC)ccc2OC)cc(N)c1C#N [JNK Inhibitor VIII]; settings: top dose 10 µM; top dose inferred
Procedure: as §1

[4] = compound: CN1CCN(c2ccc([N+](=O)[O-])c3no[n+]([O-])c23)CC1 [NSC-207895]; settings: top dose 20 µM; top dose inferred
Procedure: as §1

[5] = compound: COC(=O)[C@H](CCSC)NC(=O)c1ccc(NC[C@@H](N)CS)cc1-c1ccccc1 [FTI-277]; settings: top dose 1.024 µM; top dose inferred
Procedure: as §1

[6] = compound: COCC[n+]1c2c(n(Cc3cnccn3)c1C)C(=O)c1ccccc1C2=O [YM155]; settings: top dose 5.12 µM
Procedure: as §1

[7] = compound: C[C@]1(O)C[C@@H](c2nc(-c3ccc4ccc(-c5ccccc5)nc4c3)c3c(N)nccn32)C1 [OSI-906]; settings: top dose 2.56 µM; top dose inferred
Procedure: as §1

[8] = compound: Cc1ccc(C(=O)N(CCCN)[C@@H](c2nc3cc(Cl)ccc3c(=O)n2Cc2ccccc2)C(C)C)cc1 [SB-715992]; settings: top dose 0.128 µM; top dose inferred
Procedure: as §1

[9] = compound: Cc1sc2c(c1C)C(c1ccc(Cl)cc1)=N[C@@H](CC(=O)OC(C)(C)C)c1nnc(C)n1-2 [JQ1]
Procedure: as §1

[10] = compound: O=C(/C=C/c1cccc(S(=O)(=O)Nc2ccccc2)c1)NO [Belinostat]; settings: top dose 20 µM; top dose inferred
Procedure: as §1

[11] = compound: c1ccc2c(CCNc3ccc(Nc4ccncc4)cc3)c[nH]c2c1 [JNJ-26854165]; settings: top dose 10 µM
Procedure: as §1

[12] = top dose 1 µM, screen: GDSC drug entry 1218, top dose inferred
[13] = top dose 2.56 µM, screen: GDSC drug entry 163

Cell Line	AUC [1]	IC50 [1] [nM]	AUC [2]	IC50 [2] [nM]	AUC [3]	IC50 [3] [µM]	AUC [4]	IC50 [4] [µM]	AUC [5]	IC50 [5] [nM]	AUC [6]	IC50 [6] [nM]	AUC [7]	IC50 [7] [nM]	AUC [8]	IC50 [8] [nM]	AUC [9, 12]	IC50 [9, 12] [nM]	AUC [9, 13]	IC50 [9, 13] [nM]	AUC [10]	IC50 [10] [µM]	AUC [11]	IC50 [11] [µM]
SW756 (cervix, adherent)	0.626	1.87	0.888	> 2000	0.904	> 10	0.833	16.5	0.985	> 1020	0.043	< 20	0.982	> 2560	0.983	> 128	0.933	> 1000	0.893	> 2560	0.704	5.31	0.863	> 10
HCC1500 (breast, adherent)	0.974	> 12.5	0.987	> 2000	0.988	> 10	0.962	> 20	0.988	> 1020	0.442	221	0.983	> 2560	0.939	> 128	0.924	> 1000	0.815	1480	0.437	0.836	0.958	> 10
COLO-678 (large intestine, semi-adherent)	0.916	> 12.5	0.985	> 2000	0.984	> 10	0.984	> 20	0.963	> 1020	0.307	77.9	0.974	> 2560	0.983	> 128	0.982	> 1000	0.834	2410	0.709	5.85	0.934	> 10
